According to the supplement of paper PMC11876631:
± gives the standard deviation of the averaged measurements. Laboratory Escherichia coli strains with one amino-acid change in an essential protein, pooled on minimal glucose agar with carbenicillin or gentamicin at twice the control MIC (plus kanamycin and chloramphenicol for the plasmids), 48 h. Fold change of barcode share against drug-free plates; higher = less susceptible. Active = above 20 in both replicates (the paper's putatively resistant). '<' = one read or none on drug, '>' = one read or none on a drug-free plate. Shares are relative, so most strains fall below 1 when a few take over. Listed are strains with at least 15 reads on both drug-free plates, and hits; most hits rest on fewer reference reads. Replicate rank correlation about 0.5. Edits are read from barcodes.

Target: Escherichia coli (laboratory strain)
Assay: barcode share on antibiotic plates over drug-free plates; higher = less susceptible
Description: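 A pool of E. coli strains, each edited to carry one amino-acid change in an essential protein, was grown for 48 h on minimal glucose agar with or without antibiotic; strain barcodes were sequenced; mean of two replicates.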

[1] = antibiotic: carbenicillin, 2× MIC (3.1 µg/mL)
[2] = antibiotic: gentamicin, 2× MIC (MIC 0.45 µg/mL)

B1: mreB F85D (protein)
chain: MLKKFRGMFSNDLSIDLGTANTLIYVKGQGIVLNEPSVVAIRQDRAGSPKSVAAVGHDAKQMLGRTPGNIAAIRPMKDGVIADFDVTEKMLQHFIKQVHSNSFMRPSPRVLVCVPVGATQVERRAIRESAQGAGAREVFLIEEPMAAAIGAGLPVSEATGSMVVDIGGGTTEVAVISLNGVVYSSSVRIGGDRFDEAIINYVRRNYGSLIGEATAERIKHEIGSAYPGDEVREIEVRGRNLAEGVPRGFTLNSNEILEALQEPLTGIVSAVMVALEQCPPELASDISERGMVLTGGGALLRNLDRLLMEETGIPVVVAEDPLTCVARGGGKALEMIDMHGGDLFSEE
fold change of barcode share [1]: 0.281 ± 0.07
fold change of barcode share [2]: 0.0892 ± 0.12

B2: mreB V268Q (protein)
chain: MLKKFRGMFSNDLSIDLGTANTLIYVKGQGIVLNEPSVVAIRQDRAGSPKSVAAVGHDAKQMLGRTPGNIAAIRPMKDGVIADFFVTEKMLQHFIKQVHSNSFMRPSPRVLVCVPVGATQVERRAIRESAQGAGAREVFLIEEPMAAAIGAGLPVSEATGSMVVDIGGGTTEVAVISLNGVVYSSSVRIGGDRFDEAIINYVRRNYGSLIGEATAERIKHEIGSAYPGDEVREIEVRGRNLAEGVPRGFTLNSNEILEALQEPLTGIQSAVMVALEQCPPELASDISERGMVLTGGGALLRNLDRLLMEETGIPVVVAEDPLTCVARGGGKALEMIDMHGGDLFSEE
fold change of barcode share [1]: 0.279 ± 0.044
fold change of barcode share [2]: 0.00361 ± 0.0011

B3: mreB F85P (protein)
chain: MLKKFRGMFSNDLSIDLGTANTLIYVKGQGIVLNEPSVVAIRQDRAGSPKSVAAVGHDAKQMLGRTPGNIAAIRPMKDGVIADFPVTEKMLQHFIKQVHSNSFMRPSPRVLVCVPVGATQVERRAIRESAQGAGAREVFLIEEPMAAAIGAGLPVSEATGSMVVDIGGGTTEVAVISLNGVVYSSSVRIGGDRFDEAIINYVRRNYGSLIGEATAERIKHEIGSAYPGDEVREIEVRGRNLAEGVPRGFTLNSNEILEALQEPLTGIVSAVMVALEQCPPELASDISERGMVLTGGGALLRNLDRLLMEETGIPVVVAEDPLTCVARGGGKALEMIDMHGGDLFSEE
fold change of barcode share [1]: 0.176 ± 0.13

B4: mreB V164A (protein)
chain: MLKKFRGMFSNDLSIDLGTANTLIYVKGQGIVLNEPSVVAIRQDRAGSPKSVAAVGHDAKQMLGRTPGNIAAIRPMKDGVIADFFVTEKMLQHFIKQVHSNSFMRPSPRVLVCVPVGATQVERRAIRESAQGAGAREVFLIEEPMAAAIGAGLPVSEATGSMVADIGGGTTEVAVISLNGVVYSSSVRIGGDRFDEAIINYVRRNYGSLIGEATAERIKHEIGSAYPGDEVREIEVRGRNLAEGVPRGFTLNSNEILEALQEPLTGIVSAVMVALEQCPPELASDISERGMVLTGGGALLRNLDRLLMEETGIPVVVAEDPLTCVARGGGKALEMIDMHGGDLFSEE
fold change of barcode share [1]: 0.21 ± 0.12
fold change of barcode share [2]: < 0.0144

B5: mreB V268A (protein)
chain: MLKKFRGMFSNDLSIDLGTANTLIYVKGQGIVLNEPSVVAIRQDRAGSPKSVAAVGHDAKQMLGRTPGNIAAIRPMKDGVIADFFVTEKMLQHFIKQVHSNSFMRPSPRVLVCVPVGATQVERRAIRESAQGAGAREVFLIEEPMAAAIGAGLPVSEATGSMVVDIGGGTTEVAVISLNGVVYSSSVRIGGDRFDEAIINYVRRNYGSLIGEATAERIKHEIGSAYPGDEVREIEVRGRNLAEGVPRGFTLNSNEILEALQEPLTGIASAVMVALEQCPPELASDISERGMVLTGGGALLRNLDRLLMEETGIPVVVAEDPLTCVARGGGKALEMIDMHGGDLFSEE
fold change of barcode share [1]: 0.249 ± 0.087
fold change of barcode share [2]: < 0.00271

B6: mreB V271Q (protein)
chain: MLKKFRGMFSNDLSIDLGTANTLIYVKGQGIVLNEPSVVAIRQDRAGSPKSVAAVGHDAKQMLGRTPGNIAAIRPMKDGVIADFFVTEKMLQHFIKQVHSNSFMRPSPRVLVCVPVGATQVERRAIRESAQGAGAREVFLIEEPMAAAIGAGLPVSEATGSMVVDIGGGTTEVAVISLNGVVYSSSVRIGGDRFDEAIINYVRRNYGSLIGEATAERIKHEIGSAYPGDEVREIEVRGRNLAEGVPRGFTLNSNEILEALQEPLTGIVSAQMVALEQCPPELASDISERGMVLTGGGALLRNLDRLLMEETGIPVVVAEDPLTCVARGGGKALEMIDMHGGDLFSEE
fold change of barcode share [1]: 0.381 ± 0.12
fold change of barcode share [2]: 0.00386 ± 0.0033

B7: mreB V271A (protein)
chain: MLKKFRGMFSNDLSIDLGTANTLIYVKGQGIVLNEPSVVAIRQDRAGSPKSVAAVGHDAKQMLGRTPGNIAAIRPMKDGVIADFFVTEKMLQHFIKQVHSNSFMRPSPRVLVCVPVGATQVERRAIRESAQGAGAREVFLIEEPMAAAIGAGLPVSEATGSMVVDIGGGTTEVAVISLNGVVYSSSVRIGGDRFDEAIINYVRRNYGSLIGEATAERIKHEIGSAYPGDEVREIEVRGRNLAEGVPRGFTLNSNEILEALQEPLTGIVSAAMVALEQCPPELASDISERGMVLTGGGALLRNLDRLLMEETGIPVVVAEDPLTCVARGGGKALEMIDMHGGDLFSEE
fold change of barcode share [1]: 0.155 ± 0.024
fold change of barcode share [2]: < 0.00375

B8: mreB V268D (protein)
chain: MLKKFRGMFSNDLSIDLGTANTLIYVKGQGIVLNEPSVVAIRQDRAGSPKSVAAVGHDAKQMLGRTPGNIAAIRPMKDGVIADFFVTEKMLQHFIKQVHSNSFMRPSPRVLVCVPVGATQVERRAIRESAQGAGAREVFLIEEPMAAAIGAGLPVSEATGSMVVDIGGGTTEVAVISLNGVVYSSSVRIGGDRFDEAIINYVRRNYGSLIGEATAERIKHEIGSAYPGDEVREIEVRGRNLAEGVPRGFTLNSNEILEALQEPLTGIDSAVMVALEQCPPELASDISERGMVLTGGGALLRNLDRLLMEETGIPVVVAEDPLTCVARGGGKALEMIDMHGGDLFSEE
fold change of barcode share [1]: 0.18 ± 0.1
fold change of barcode share [2]: < 0.00542

B9: mreB M272A (protein)
chain: MLKKFRGMFSNDLSIDLGTANTLIYVKGQGIVLNEPSVVAIRQDRAGSPKSVAAVGHDAKQMLGRTPGNIAAIRPMKDGVIADFFVTEKMLQHFIKQVHSNSFMRPSPRVLVCVPVGATQVERRAIRESAQGAGAREVFLIEEPMAAAIGAGLPVSEATGSMVVDIGGGTTEVAVISLNGVVYSSSVRIGGDRFDEAIINYVRRNYGSLIGEATAERIKHEIGSAYPGDEVREIEVRGRNLAEGVPRGFTLNSNEILEALQEPLTGIVSAVAVALEQCPPELASDISERGMVLTGGGALLRNLDRLLMEETGIPVVVAEDPLTCVARGGGKALEMIDMHGGDLFSEE
fold change of barcode share [1]: 0.377 ± 0.0082
fold change of barcode share [2]: 0.0984 ± 0.069

B10: mreB V268W (protein)
chain: MLKKFRGMFSNDLSIDLGTANTLIYVKGQGIVLNEPSVVAIRQDRAGSPKSVAAVGHDAKQMLGRTPGNIAAIRPMKDGVIADFFVTEKMLQHFIKQVHSNSFMRPSPRVLVCVPVGATQVERRAIRESAQGAGAREVFLIEEPMAAAIGAGLPVSEATGSMVVDIGGGTTEVAVISLNGVVYSSSVRIGGDRFDEAIINYVRRNYGSLIGEATAERIKHEIGSAYPGDEVREIEVRGRNLAEGVPRGFTLNSNEILEALQEPLTGIWSAVMVALEQCPPELASDISERGMVLTGGGALLRNLDRLLMEETGIPVVVAEDPLTCVARGGGKALEMIDMHGGDLFSEE
fold change of barcode share [1]: 0.387 ± 0.2
fold change of barcode share [2]: 0.00566 ± 0.0055

B11: mreB I176A (protein)
chain: MLKKFRGMFSNDLSIDLGTANTLIYVKGQGIVLNEPSVVAIRQDRAGSPKSVAAVGHDAKQMLGRTPGNIAAIRPMKDGVIADFFVTEKMLQHFIKQVHSNSFMRPSPRVLVCVPVGATQVERRAIRESAQGAGAREVFLIEEPMAAAIGAGLPVSEATGSMVVDIGGGTTEVAVASLNGVVYSSSVRIGGDRFDEAIINYVRRNYGSLIGEATAERIKHEIGSAYPGDEVREIEVRGRNLAEGVPRGFTLNSNEILEALQEPLTGIVSAVMVALEQCPPELASDISERGMVLTGGGALLRNLDRLLMEETGIPVVVAEDPLTCVARGGGKALEMIDMHGGDLFSEE
fold change of barcode share [1]: 0.116 ± 0.062
fold change of barcode share [2]: 0.0122 ± 0.0086

B12: mreB V164Q (protein)
chain: MLKKFRGMFSNDLSIDLGTANTLIYVKGQGIVLNEPSVVAIRQDRAGSPKSVAAVGHDAKQMLGRTPGNIAAIRPMKDGVIADFFVTEKMLQHFIKQVHSNSFMRPSPRVLVCVPVGATQVERRAIRESAQGAGAREVFLIEEPMAAAIGAGLPVSEATGSMVQDIGGGTTEVAVISLNGVVYSSSVRIGGDRFDEAIINYVRRNYGSLIGEATAERIKHEIGSAYPGDEVREIEVRGRNLAEGVPRGFTLNSNEILEALQEPLTGIVSAVMVALEQCPPELASDISERGMVLTGGGALLRNLDRLLMEETGIPVVVAEDPLTCVARGGGKALEMIDMHGGDLFSEE
fold change of barcode share [1]: 0.213 ± 0.035
fold change of barcode share [2]: < 0.00859

B13: accA M114Q (protein)
chain: MSLNFLDFEQPIAELEAKIDSLTAVSRQDEKLDINIDEEVHRLREKSVELTRKIFADLGAWQIAQLARHPQRPYTLDYVRLAFDEFDELAGDRAYADDKAIVGGIARLDGRPVQIIGHQKGRETKEKIRRNFGMPAPEGYRKALRLMQMAERFKMPIITFIDTPGAYPGVGAEERGQSEAIARNLREMSRLGVPVVCTVIGEGGSGGALAIGVGDKVNMLQYSTYSVISPEGCASILWKSADKAPLAAEAMGIIAPRLKELKLIDSIIPEPLGGAHRNPEAMAASLKAQLLADLADLDVLSTEDLKNRRYQRLMSYGYA
fold change of barcode share [1]: 0.331 ± 0.13
fold change of barcode share [2]: < 0.00375
